According to the supplement of paper PMC11383711:
Some of the results follow. Binding of human antibodies (heavy:light variable regions, tested as scFv in one mRNA-display pool) to influenza hemagglutinin, with or without the stem antibody CR9114 bound first. Score = (mean enrichment − median) / interquartile range of that screen; higher = more enriched, 0 = typical non-binder. Active = above the paper's cut-off per screen: stems 28; unblocked H1 Solomon Islands 5, H1 Michigan 3, H3 5, H5 19, H7 2.85, both B 5; blocked 9, 7, H5 10, H7 10, B Phuket 10, B Lee 11.5. Scores are scaled within each screen and are no affinities; replicates correlate at about 0.6 to 0.9, and antibodies rare in the pool are noisier.

B1: C3-2-3C01 (protein)
chain 1: VQLLESGGGLVQPGGSLRLSCAASGFTLSSNAMAWVRQVPGKGLQWVSGIGGIGGSTYYADSVKGRFTMSRDNSRNTLYLQMNSLRVEDTAVYYCAKGVGRIFMVRGFYFDYWGQGALVTVSS
chain 2: DIQMTQSPSPLSASVGDRVTITCRASQSITSYLNWYQQRPGKAPKLLIYAASNLQTGVPSRFSGSGSGTDFTLTISSLQPEDFATYYCQQSYSTPHTFGPGTKVDIK
B2: AG9-4A02 (protein)
chain 1: VQLVESGGGWVKPGGSLRLSCEASGFKFSDHYMAWIRQAPGKGLEWISYISDNGKTEYYADSVRGRFTVSRDNGQYFLYLEMNNVRVEDTAVYYCAREPGQWLEGWFDPWGQGTLVTVSS
chain 2: DIVMTQSPLSLRVTPGEPASISCKSSQSLLHGNGYNYLDWYLQRPGQSPQLLIYLGSNRASGVPDRFSGSGSGTDFTLKISRVEAEDVGVYYCMQALHTPPWTFGQGTKVEIK
B3: R95-1C09 (protein)
chain 1: LVQLQESGPGLVKPSETLSLTCTVSGDSVTDYYWSWIRQPPGKGLEWIGYIYYSGITNYNPSLKSRVTMSVDTSKNQISLKLTSVIAADTAVYYCARDGRLFDIWGQGTMVAVSS
chain 2: EIVLTQSPGTLSLSPGERATLSCRASQHVSSSYLAWYQQKPGQAPRLLIYDASSRATGIPDRFSGSGSGTDFTLTISRLEPEDFAVYYCQQYGSSHGWTFGQGTKVEVK
B4: K77-1B08 (protein)
chain 1: EVQLVQSGAEVKKPGESLKISCKGFGFSFTNYWIGWVRQMPGKGLDWMGIIYPGDSDPRYSPSFQGQVTISADKSLSTAFLQWNSLKASDTAMYYCASNILNYRKNWYLGGAFDIWGQGTMVTVSS
chain 2: QSALTQPPSASGTPGQGITISCSGRSSNIGSNTVNWYQQLPGTAPKLLIYTNDQRPSGVPDRFSGSRSGTSASLAISGLQSGDESDYYCATWDDSLNAYVFGTGTKVTVL
B5: K77-2G11 (protein)
chain 1: QMHLQESGPGLVKPSQTLSLTCSVSGGSINNGGYYWSWVRQHPGKGLEWVGYVYHSGNTYYNPSLKSRISMSVDTSNNRFSLKLNPVTAADTAVYFCARVGLTHYDVLTAYYSGYSDTWGQGTLVTVSS
chain 2: DIQMTQSPSSVSASVGDRVTITCRASQDIATWLAWYQQKPVGPPKLLIHGASTLGSGVPSRFSGSGSGTDFTLTISGLQPGDFATYFCQQAYSLPITFGQGTRL
B6: C7-3-A05 (protein)
chain 1: VQLVQSGAEVKKPGPGASVKVSCKASGDSFTNYYMHWVRQAPGQGLEWMGMINPNGGNVTYAQNFQDRVTMTIDTSTSTVYMELSSLRSEDTAVYFCVRVFEEQWLAYWGQGTLVTVSS
chain 2: EIVLTQSPATLSLSPGERATLSCRASQSVRNYLAWYQQKPGQAPRLLIYDASNRATGIPARFSGSGSGTDFTLTISSLEPEDSAVYYCQQRFNGLCSFGQGTKVEIK

What follows are binders tested against Influenza A H1N1 A/Michigan/45/2015 hemagglutinin ectodomain (assay: mRNA display binding score; higher = more enriched on the antigen). Details: antigen blocked with: 2 µM CR9114 IgG.
Experimental: (§1)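 A pool of natively paired antibodies, displayed as scFv on mRNA, was selected once on antigen-coated beads and sequenced before and after; two replicates.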

Binder	mRNA display binding score
B1	inactive: -0.556
B2	inactive: 0.22
B3	inactive: -0.00637
B4	inactive: -0.00196
B5	inactive: 1.02
B6	inactive: 0.848

Same assay, conditions: antigen blocked with: nothing

Binder	mRNA display binding score
B1	inactive: -0.075
B2	inactive: 0.611
B3	inactive: 0.229
B4	inactive: -0.272
B5	inactive: 0.397
B6	inactive: 0.485

The binders below were run against Influenza A H1N1 A/Solomon Islands/3/2006 hemagglutinin ectodomain in the same assay as above. Details: antigen blocked with: 2 µM CR9114 IgG.
Experimental: as §1

Binder	mRNA display binding score
B1	inactive: -0.362
B2	inactive: 0.521
B3	inactive: -0.0191
B4	inactive: 0.0552
B5	inactive: 1.13
B6	inactive: 1.03

Same assay, conditions: antigen blocked with: nothing

Binder	mRNA display binding score
B1	inactive: -0.552
B2	inactive: 0.0531
B3	inactive: 0.101
B4	inactive: -0.145
B5	inactive: 0.358
B6	inactive: 0.7

These binders were tested against Influenza A H3N2 A/Singapore/INFIMH-16-0019/2016 hemagglutinin ectodomain in the same assay as above. Details: antigen blocked with: nothing.
Experimental: as §1

Binder	mRNA display binding score
B1	inactive: -0.317
B2	inactive: 0.546
B3	inactive: 0.177
B4	inactive: 1.01
B5	inactive: 0.381
B6	inactive: 0.484

Each binder was assayed against Influenza A H5N1 A/Qinghai/1A/2005 hemagglutinin ectodomain in the same assay as above. Details: antigen blocked with: 2 µM CR9114 IgG.
Experimental: as §1

Binder	mRNA display binding score
B1	inactive: -1.02
B2	inactive: 0.327
B3	inactive: 0.156
B4	inactive: -0.227
B5	inactive: 2.48
B6	inactive: 0.457

Same assay, conditions: antigen blocked with: nothing

Binder	mRNA display binding score
B1	inactive: -0.17
B2	inactive: 0.244
B3	inactive: 1.97
B4	inactive: -0.53
B5	inactive: 4.9
B6	inactive: 0.659

The binders below were run against Influenza A H7N9 A/Shanghai/2/2013 hemagglutinin ectodomain in the same assay as above. Details: antigen blocked with: 2 µM CR9114 IgG.
Experimental: as §1

Binder	mRNA display binding score
B1	inactive: 0.824
B2	inactive: -0.167
B3	inactive: 0.521
B4	inactive: -0.615
B5	inactive: 2.03
B6	inactive: 0.795

Same assay, conditions: antigen blocked with: nothing

Binder	mRNA display binding score
B1	inactive: 0.178
B2	inactive: 0.723
B3	inactive: 0.363
B4	inactive: -0.169
B5	inactive: 0.596
B6	inactive: 0.589

These binders were tested against Influenza B/Lee/1940 hemagglutinin ectodomain in the same assay as above. Details: antigen blocked with: 2 µM CR9114 IgG.
Experimental: as §1

Binder	mRNA display binding score
B1	inactive: -0.389
B2	inactive: 0.154
B3	inactive: -0.104
B4	inactive: -0.114
B5	inactive: 9.18
B6	inactive: 0.0876

Same assay, conditions: antigen blocked with: nothing

Binder	mRNA display binding score
B1	inactive: -0.357
B2	inactive: -0.168
B3	active: 6.99
B4	inactive: -0.316
B5	active: 216
B6	inactive: 0.222

What follows are binders tested against Influenza B/Phuket/3073/2013 hemagglutinin ectodomain in the same assay as above. Details: antigen blocked with: 2 µM CR9114 IgG.
Experimental: as §1

Binder	mRNA display binding score
B1	inactive: -0.357
B2	inactive: 3.29
B3	inactive: 5.11
B4	inactive: -0.117
B5	active: 81.5
B6	inactive: -0.119

Same assay, conditions: antigen blocked with: nothing

Binder	mRNA display binding score
B1	inactive: -0.172
B2	inactive: 1.32
B3	active: 54.1
B4	inactive: -0.377
B5	active: 96.5
B6	inactive: 0.144
